US20230278972A1, “SUBSTITUTED HALOALKYL SULFONANILIDE HERBICIDES” (FMC Corporation, priority 2020, published 2023)

What was measured:
Conditions in all cases: Flood, 250 g ai/ha; visual rating after 13 to 15 days; scale of 0 to 100 where 0 is no effect and 100 is complete control
rice (Oryza sativa) = experiment: Test B flooded paddy test, rice
[1] = test system: ducksalad (Heteranthera limosa); experiment: Test B flooded paddy test, ducksalad
[2] = test system: barnyardgrass (Echinochloa crus-galli); experiment: Test B flooded paddy test, barnyardgrass
[3] = test system: sedge, umbrella (small-flower umbrella sedge, Cyperus difformis); experiment: Test B flooded paddy test, sedge, umbrella

Row | SMILES | Plant response rating, Rice (rice (Oryza sativa)) | Plant response rating, Ducksalad [1] | Plant response rating, Barnyardgrass [2] | Plant response rating, Sedge, Umbrella [3]
1 | Cc1cc(C)c(C(=O)N2CCC(C#N)CC2)cc1NS(=O)(=O)C(F)(F)F [Compound 162] | 20 | 60 | 25 | 70
2 | Cc1cc(C)c(C2=NOC3(CCC(C)(C)CC3)C2)cc1NS(=O)(=O)C(F)(F)F [Compound 163] | 0 | 60 | 0 | 90
3 | Cc1cc(C)c(C2=NOC3CCCC23)cc1NS(=O)(=O)C(F)(F)F (centres unmarked) [Compound 164] | 0 | 85 | 90 | 95
4 | Cc1cc(C(F)(F)F)c(NS(=O)(=O)C(F)(F)F)cc1C(=O)N1CCCCC1 [Compound 165] | 30 | 75 | 20 | 95
5 | Cc1cc(C)c(C2=NOC3CCCC23)cc1NS(=O)(=O)C(F)(F)F (centres unmarked) [Compound 166] | 25 | 70 | 95 | 95
6 | Cc1cc(C)c(N(S(=O)(=O)C(F)(F)F)S(=O)(=O)C(F)(F)F)cc1C(=O)N(C)CC1CC1 [Compound 169] | 0 | 0 | 0 | 80
7 | Cc1cc(C)c(C2=NOC3(CCC(F)(F)CC3)C2)cc1NS(=O)(=O)C(F)(F)F [Compound 172] | 55 | 65 | 15 | 45
8 | Cc1c(C(=O)N2CCOCC2)cc(N(S(=O)(=O)C(F)(F)F)S(=O)(=O)C(F)(F)F)c(C)c1F [Compound 174] | 0 | 60 | 0 | 55
9 | COC1CCCN(C(=O)c2cc(NS(=O)(=O)C(F)(F)F)c(C)cc2C)C1 (centres unmarked) [Compound 175] | 0 | 70 | 0 | 85
10 | Cc1cc(C)c(C2=NOC3(CCSCC3)C2)cc1NS(=O)(=O)C(F)(F)F [Compound 176] | 0 | 60 | 30 | 65
11 | Cc1cc(C)c(C2=NOC3(CCOCC3)C2)cc1NS(=O)(=O)C(F)(F)F [Compound 177] | 0 | 70 | 0 | 80
12 | Cc1cc(C)c(N(S(=O)(=O)C(F)(F)F)S(=O)(=O)C(F)(F)F)cc1C1=NOC2(CCOCC2)C1 [Compound 178] | 0 | 20 | 0 | 90
13 | C#CCN(C)C(=O)c1cc(NS(=O)(=O)C(F)(F)F)c(C)c(F)c1C [Compound 179] | 0 | 60 | 0 | 60
14 | Cc1cc(C(F)(F)F)c(C(=O)N2CCCCC2)cc1NS(=O)(=O)C(F)(F)F [Compound 180] | 0 | 35 | 0 | 80
15 | Cc1cc(Cl)c(C2=NOC(C)(C)C2)cc1NS(=O)(=O)C(F)(F)F [Compound 183] | 0 | 20 | 25 | 60
16 | Cc1cc(Cl)c(C2=NOC(C)(C)C2)cc1N(S(=O)(=O)C(F)(F)F)S(=O)(=O)C(F)(F)F [Compound 184] | 0 | 25 | 25 | 45

Row | SMILES | Plant response rating, Rice (rice (Oryza sativa)) | Plant response rating, Ducksalad [1] | Plant response rating, Barnyardgrass [2] | Plant response rating, Sedge, Umbrella [3]
17 | Cc1cc(Cl)c(C2=NOC3(CCCC3)C2)cc1NS(=O)(=O)C(F)(F)F [Compound 185] | 0 | 10 | 25 | 75
18 | Cc1cc(Cl)c(C2=NOC3(CCCC3)C2)cc1N(S(=O)(=O)C(F)(F)F)S(=O)(=O)C(F)(F)F [Compound 186] | 0 | 0 | 0 | 0
19 | C#CCN(C)C(=O)c1cc(NS(=O)(=O)C(F)(F)F)c(C)cc1C [Compound 189] | 15 | 75 | 45 | 85
20 | Cc1c(NS(=O)(=O)C(F)(F)F)cc(C(=O)N2CCCCC2)c(C)c1F [Compound 191] | 0 | 75 | 0 | 75
21 | Cc1cc(C)c(C(=O)N2CCC3(CC2)OCCCO3)cc1NS(=O)(=O)C(F)(F)F [Compound 194] | 0 | 0 | 0 | 0
22 | Cc1cc(C)c(C(=O)N2CCC3(CCCCC3)CC2)cc1NS(=O)(=O)C(F)(F)F [Compound 195] | 0 | 0 | 0 | 0
23 | Cc1cc(C)c(N(S(=O)(=O)C(F)(F)F)S(=O)(=O)C(F)(F)F)cc1C1=NOC2(CCC2)C1 [Compound 196] | 0 | 75 | 0 | 90
24 | Cc1cc(C)c(N(S(=O)(=O)C(F)(F)F)S(=O)(=O)C(F)(F)F)cc1C1=NOC2(CCCCC2)C1 [Compound 198] | 0 | 90 | 70 | 98
25 | Cc1cc(Cl)c(N(S(=O)(=O)C(F)(F)F)S(=O)(=O)C(F)(F)F)cc1C(=O)N1CCC(Cl)CC1 [Compound 200] | 0 | 0 | 0 | 0
26 | Cc1cc(Cl)c(NS(=O)(=O)C(F)(F)F)cc1C(=O)N1CCC(F)CC1 [Compound 201] | 0 | 75 | 0 | 75
27 | Cc1cc(C)c(C(=O)N2CCC(F)(F)C2)cc1NS(=O)(=O)C(F)(F)F [Compound 202] | 0 | 75 | 0 | 90
28 | Cc1cc(Cl)c(NS(=O)(=O)C(F)(F)F)cc1C1=NOC(C)(C)C1 [Compound 203] | 20 | 30 | 25 | 80
29 | Cc1cc(Cl)c(NS(=O)(=O)C(F)(F)F)cc1C1=NOC2(CCCC2)C1 [Compound 204] | 0 | 0 | 0 | 0
30 | Cc1cc(C)c(C2=NOC(C)(C)C2)cc1NS(=O)(=O)C(F)(F)F [Compound 206] | 0 | 75 | 0 | 95
31 | Cc1cc(C)c(N(S(=O)(=O)C(F)(F)F)S(=O)(=O)C(F)(F)F)cc1C1=NOC2(CCCC2)C1 [Compound 208] | 15 | 85 | 65 | 98
32 | CCC1(CC)CC(c2cc(NS(=O)(=O)C(F)(F)F)c(C)cc2C)=NO1 [Compound 209] | 0 | 85 | 10 | 95
